# From the RNAGym collection of RNA variant scans (doi:10.1073/pnas.2313332121)
# Variants at the background level are over-represented here.
# B1: TPR 5TU (parent)
# chain: GGAUCUUCUCGAUCUAACAAAAAAGACAAAUCUGCCACAAAGCUUGAGAGCAUCUUCGGAUGCAGAGGCGGCAGCCUUCGGUGGCGCGAUAGCGCCAACGUUCUCAACUAUGACACGCAAAACGCGUGCUCCGUUGAAUGGAGUUUAUCAUG
# Variants of: B1
# Test: polymerase ribozyme fitness, log enrichment relative to wild type (log ratio); higher = more active; in vitro selection for triplet polymerase activity
# Method in brief: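 Fitness compares each genotype's enrichment to that of the wild type on a logarithmic scale, averaging replicates with inverse-variance weights. The logarithm is base 2. Enrichment came from Illumina sequencing of input and output libraries after one triplicate round of in vitro selection, which included frozen incubation at −7 °C, of PCR-built, transcribed mutant libraries of each subunit of a heterodimeric triplet polymerase ribozyme. Only genotypes with ≥10 input reads and ≥1 read per output were kept.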
row,Variant,polymerase ribozyme fitness (log ratio)
1,U4G U7G A49U C75G C93U,≤ -4.2
2,U4C G71A G83U A89U C131U A137U,≤ -4.2
3,U4G G42U G92C,≤ -4.2
4,C5G C87A,≤ -4.2
5,C5A C14G A20G A30U G42A A64C G68C G84A U144A,≤ -4.2
6,U4C A16C U55A G74U C85U C87U C103U U146A A147C,≤ -4.2
7,U4A C43G,≤ -4.2
8,A3U A30G A47C C87U A113G C118G,≤ -4.2
9,U4A A16U A113C A115U,≤ -4.2
10,C5A U6C A21C A23C G48U G59C A64U G67A A73G C79G G81C C95G G100C G112U U145A,≤ -4.2
11,C5A A60G,0.956
12,C5G A12C C51U C57U C95U C99A C105U U144A A150G,≤ -4.2
13,C5G A12G A22U C38A U44G C75A C79U C93A G133U,≤ -4.2
14,C5G C38A A39C A60U A73G G94U U104A A138U,≤ -4.2
15,C5A A30G C57A C95G A106G,≤ -4.2
16,C5G C8A U13G G74C C99G A147U,≤ -4.2
17,U4G A19G A23G G59U A66U G141C,≤ -4.2
18,C5A A24G A64C G68A C76U C79U G83C U90A C95G A115U A138G,≤ -4.2
19,U4C U31C C76G C116G,≤ -4.2
20,C5G A12U U31A A41U C54U U56A G88A U127C A137C G141A,≤ -4.2
21,A3U C79A A91G,≤ -4.2
22,U4A U53A C93U A97U,≤ -4.2
23,C5G A19G A29C A39C U145C,≤ -4.2
24,U4A C5G A22U G25U A30U C63U A66C G143U,≤ -4.2

row,Variant,polymerase ribozyme fitness (log ratio)
1,C5G A17C A40C A52C C79G A142U U144A C149A,≤ -4.2
2,U4G A39U C75U U77C G84U C105G,≤ -4.2
3,C5G A30G G88C,≤ -4.2
4,U4A C5G U31G U56A G80C C87G C99G,≤ -4.2
5,U4C A21G C35A U55C A64C G94U G136A,≤ -4.2
6,C5A A19U G86C A147C,-3.38
7,U4C A19G C76G G86U A89G A106C U134G,≤ -4.2
8,C5G A26C C87A G88A U102G C114G,≤ -4.2
9,C5A C8G A19C G42C U45G C87G,≤ -4.2
10,C5G A21U C35U A91G G94A C114U G136A,≤ -4.2
11,A3U C43A C57A G92A A138G G141U,≤ -4.2
12,C5G C14G G25U C54A G92A,≤ -4.2
13,C5G A41G C85U C95U A122U C132A,-3.5
14,C5G A22C C32G G81U G92U C108U U135A G143U,≤ -4.2
15,A3U C8U C14G A19C U33A A52C G70A C79G C87G G152U,≤ -4.2
16,U4A G11C C32A A39C G42C A47G G48C A60U G67C A110G,≤ -4.2
17,C5G C18U A21C G86A C105A C123G,≤ -4.2
18,U4A U56A G83C G100U,≤ -4.2
19,U4C G48A,-1.42
20,U4A A16U A17G A21U A24U G84A C114U A122U A142C,≤ -4.2
21,C5A U31G A40G G74A C85A A97U U101C C118U,≤ -4.2
22,C5A A40C G50U C57U G81C C95A U104G C116G G133A,≤ -4.2
23,U4C A16G C85A C99G U135A,≤ -4.2
24,U4G U56A C57A G59A G68A C96G,≤ -4.2

row,Variant,polymerase ribozyme fitness (log ratio)
1,A3U C93A,-2.19
2,A3U A91U,≤ -4.2
3,U4C A22U C32G C38G G65C G81A C118U C149U,≤ -4.2
4,U4G C8G A23C A52G C54G G74C,≤ -4.2
5,C5A C87G A138G,≤ -4.2
6,U4C A22G G86A,-1.64
7,C5G G71U,-3.09
8,U4G A47C C85U A110U C118A C129G A137G A142C,≤ -4.2
9,C5G A29G G42A G80C C85G A106C U144A,≤ -4.2
10,U4A C18U C79G A91U A142C U148C,≤ -4.2
11,A3U C96G,-1.47
12,U4A A17G A28C C38U A60U G94U A120C,≤ -4.2
13,C5G G50A C87U C103G U111C C132U,≤ -4.2
14,U4A A22C U56A G124U U135C,-3.48
15,C5A C54U C87U U148C,-2.76
16,C5G C8G U55C C76G G92A C114G A115U,≤ -4.2
17,C5A A28U U55A C57G C96U G141U,≤ -4.2
18,U4A A17G C35A G59C U135A,≤ -4.2
19,U4C A19U A64C C76U G84U A120G U134A,≤ -4.2
20,U4G U6G C36U C57G G58U C93G C105U,≤ -4.2
21,U4G G50A C75G G94U A142U A147U,≤ -4.2
22,C5A U7C C18G U55A G58A A89C,-1.54
23,A3U C35A C118G G141C,≤ -4.2
24,A3U C14G U31C A52U G92C,≤ -4.2

row,Variant,polymerase ribozyme fitness (log ratio)
1,U4A U53A U82A A91U A115G U148G,≤ -4.2
2,C5A A16U A52G A106G,-3.09
3,C5A A41G G58A A60C G84A A106U C131U U146A,-3.76
4,A3U C5G U13G G71U G88U A142G,≤ -4.2
5,C5A U7G C32U G80C C87G C149G,≤ -4.2
6,C5A A20C G92U G112A U139A,≤ -4.2
7,C5A G81U C85G C99U U134A,-4.04
8,C5G A19C G50C U134C,≤ -4.2
9,U4C A20C C57U C87G G112U A137C,≤ -4.2
10,C5G G42A A60G U61A C93U C95G A119C G141A,≤ -4.2
11,U4A U44A U82A G92A,≤ -4.2
12,A3U C27U C38U C51G A73U C85U C93A C105A G140U,≤ -4.2
13,U4G G65C C85G,≤ -4.2
14,C5G A28U U31G C51U C85U,≤ -4.2
15,C5A A49U C51U A52C A64C G94A A121G,≤ -4.2
16,C5G C85A C87U G88C A110U C116A U135C,≤ -4.2
17,C5A A23C A29U U55G,≤ -4.2
18,U4G U53A C85U G133C,-2.45
19,A3U G50U C95G A142C U148A,≤ -4.2
20,C5G A28G G48C G83C U104G G133U,≤ -4.2
21,U4A G25C A30U C54U U55A G62C G68A C96A G143U,≤ -4.2
22,C5A C35A U61A G71C C79G C93U G140A G143U,≤ -4.2
23,C5A C76A C85G G133C,-2.61
24,C5G C96A G117A,-0.406

row,Variant,polymerase ribozyme fitness (log ratio)
1,A3U U145C,-0.205
2,U4A A29U C38U U44A U55A C57U C87G C95G,≤ -4.2
3,U4A G42U A47C C75G G88C U144G,≤ -4.2
4,A3U A52C G58A G81A U109G U127C,≤ -4.2
5,A3U G25C C32G A37C U56C G68C G74A C87U A142C,≤ -4.2
6,U4C C8G A24C G50U C75G C93G,≤ -4.2
7,U4G A40C A137G,-1.84
8,A3U G65A C85A,-3.12
9,U4A C10U A17G A21C C43U G92A C105A G124C,≤ -4.2
10,U4G A21C C93G,-1.92
11,C5G A91C A142C,≤ -4.2
12,A3U U45G C69A G92U A115G,≤ -4.2
13,U4C C14U C75A C96A C129A,≤ -4.2
14,U4G A16C U45A U56A C63G A66U C85G G92A C132A,≤ -4.2
15,U4C A19U A20U C43U A47C A66C C85U,≤ -4.2
16,C5G A29U G42A C79A G94C A97U C103A U151C,≤ -4.2
17,U4C C54G A91C A98U,≤ -4.2
18,U4G A89C C131A,-3.28
19,C5A G50A C87A A107G,≤ -4.2
20,U4A C10U U104A A119U,≤ -4.2
21,A3U G34A A49G A89U C95U U102A U148A,≤ -4.2
22,U4C G11U G84A C108A,≤ -4.2
23,C5G A19U C85G A91G G94A C99U C123A,≤ -4.2
24,A3U C5A U15C A19G C57G C118G G136A G141C A142C,≤ -4.2

row,Variant,polymerase ribozyme fitness (log ratio)
1,U4A C51G G84A A106U C118A,≤ -4.2
2,A3U C85G C93G G136A A142C,≤ -4.2
3,C5G A21C A22U A107C,≤ -4.2
4,U4A A40C G80A G88C A89G C93U C105U C116A,≤ -4.2
5,U4C A20U U33C G59C C87A C132A G133A G136U,≤ -4.2
6,U4G C10A U15C A37U U45A U55A G70U G81A A107C G117C,≤ -4.2
7,A3U C10U U56A C96U C116U G143A,-3.56
8,C5A C85U G86C A119C A120C,-3.07
9,U4G G50A C95A C116G G136C,≤ -4.2
10,C5G A41U A49C U77G C95U C114U C132U,≤ -4.2
11,C5G C35U A52C G59C A106G C108A C114U A119U A122U G133U,≤ -4.2
12,C5A A23U A26C A28U C35U G83A G88U C95G U102G,≤ -4.2
13,U4C G50C A60U G62C C93G C108U C118U U135G A137G U139G,≤ -4.2
14,C5A A17G A28U C35U A60U C85G A138U,≤ -4.2
15,A3U A30G U104C C105A C114G A115G A122G C129A,≤ -4.2
16,C5G C8U C18U A22U A24U A26C C99G A115C A150G,≤ -4.2
17,U4G G11A G74A G88A U102G G143C U146G,≤ -4.2
18,C5G A28G A30C C36U A47U C57U C85A A91U C118U A120G C125G A142G,≤ -4.2
19,C5A A22C C87G U134C U146G,≤ -4.2
20,U4C C36U A49G A66U G83A C85G G88A C114U U146G,≤ -4.2
21,U4C C51U C76U G94A,-1.51
22,U4A G50A C76U A91U C95U A97G C116A U130A,≤ -4.2
23,U4G C51A G92A C108U G126A,≤ -4.2
24,A3U C35G C93U G100A C105G G133C,≤ -4.2

row,Variant,polymerase ribozyme fitness (log ratio)
1,C5A A20C A37U A39G G59C A66G G88U,≤ -4.2
2,C5G A39U C79U G94C,≤ -4.2
3,C5A A16G C38U A89U U101A G143A U145A,≤ -4.2
4,C5G C35U G50A U55A C57A A66C C87A U134C,≤ -4.2
5,U4G A19C C36A A119C G133A,≤ -4.2
6,U4A A26G A49C A107G,≤ -4.2
7,C5A A29C G42A C79G C87U C103A U111C C114G G136U,≤ -4.2
8,C5G A24U U78C G84C A113U A150C,≤ -4.2
9,U4G G50C U55A G88A U144A,≤ -4.2
10,C5A A20U G42C U82C A91G U102A C125U,≤ -4.2
11,U4A C18G G34C G48C C54U U56A G94U U134A A137G,≤ -4.2
12,C5G G59C C85A C93G C131U G140C U151C G152U,≤ -4.2
13,U4C A22U A26U A40C A52U G67A U90A C99A A150U,≤ -4.2
14,C5G C54U U56A C99U,-1.99
15,U4G U56A C76U U135C A138U,≤ -4.2
16,A3U G59U U82A C93A A142C,≤ -4.2
17,U4A G34U U61G G70A C99U A107C U139G,≤ -4.2
18,U4A U9C C27G U55A G70C C85A U127G A142U,≤ -4.2
19,C5A G80C C96G C105U,≤ -4.2
20,U4G A21G A52U C85G C95G A137C,≤ -4.2
21,C5G G68U U77C C85U G128U U130C,≤ -4.2
22,A3U C14U A23G A29G A37U U53A C54A A91U C105G A113U,≤ -4.2
23,A3U G84A,-1.14
